Experimental data reported in the supplement of paper PMC3334620.
In all, about 33,000 sequences were measured (“E-score (-0.5 to 0.5)”: median about -0.01, highest 2% from about 0.26 on). This is one part of the list.

Molecular target: Ste12 (UniProt P13574)
Experiment: PBM E-score (8-mer binding enrichment) (E-score (-0.5 to 0.5)); higher = stronger / more preferred TF binding; most listed sequences are background and not binding sites
Settings: protein concentration: 200 nM; construct: GST-DNA-binding domain
Outline: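 For each ungapped eight-base word taken together with its reverse complement, the Universal PBM Analysis Suite assigned an E-score. Binding data came from GST-tagged yeast transcription factors, applied at about 100-200 nM, on universal all-10-mer Agilent arrays made double-stranded by primer extension. Fluorescent anti-GST marked bound protein, and scans were normalised with masliner.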

| Sequence | PBM E-score |
| --- | --- |
| GTAGATTA | 0.127 |
| CTAGACAC | -0.165 |
| ATAGGAGC | -0.138 |
| AATTTCGA | 0.199 |
| GAAGAGAA | 0.132 |
| AAGACGGA | 0.119 |
| TATCTGAA | 0.135 |
| CTCGACCC | -0.0876 |
| CTCTTTGC | -0.188 |
| AACAGTTC | 0.0905 |
| GTTAACAA | 0.138 |
| GAGAGGTA | -0.257 |
| CAACTTTC | 0.149 |
| CGGTGCAG | -0.0602 |
| ACCTCTAC | -0.0118 |
| GGACCCCA | -0.101 |
| CCCTCCCA | 0.33 |
| AACAAGTA | 0.00602 |
| AACCTCTG | 0.0563 |
| TGCGCCAA | 0.131 |
| CGGGGTCA | -0.0216 |
| CCTGGGAC | -0.239 |
| ACTGGGTC | -0.21 |
| TGGCGCCA | -0.0868 |
| GGAAAGAA | 0.258 |

| Sequence | PBM E-score |
| --- | --- |
| ATGGTATA | 0.0689 |
| CAATAGCA | -0.164 |
| ACTACGCC | 0.0102 |
| ATAACATC | 0.0956 |
| AATTTACA | 0.181 |
| AGTATACG | -0.0281 |
| CCCCTTAC | -0.189 |
| CGTCTCAA | 0.233 |
| AAAGAAAA | 0.351 |
| GTAATAGA | -0.018 |
| ATTCTAAC | -0.0101 |
| GCTTACGA | -0.0479 |
| CGCCATCC | -0.0776 |
| GTAAACAA | 0.195 |
| GCTATACA | -0.191 |
| ACCATAGT | -0.00208 |
| GTGTCTTA | -0.0314 |
| ATGGGAAA | 0.0119 |
| CACTCCAA | -0.0681 |
| CAAAAGTC | 0.0372 |
| ATAGCTCC | -0.162 |
| TATCCCCA | 0.148 |
| GAATAGTC | 0.0149 |
| AGTACGCG | -0.177 |
| GACTCGGC | -0.049 |

| Sequence | PBM E-score |
| --- | --- |
| GCGTAATA | 0.0936 |
| CTTCCGGA | -0.0404 |
| GTTCAATA | -0.0143 |
| AAGATCCA | -0.00319 |
| CTTTCTTA | 0.0052 |
| CGTGAAAC | 0.364 |
| ACAATGAT | 0.142 |
| GTGAGGAA | 0.0279 |
| ACGCAAAT | 0.141 |
| CGACTTGC | -0.00012 |
| TACAGCTA | -0.217 |
| TCCACGAA | 0.102 |
| CATGAGGA | -0.114 |
| CCCCACGA | -0.00593 |
| GACATTAA | 0.173 |
| CCGTGCCC | -0.155 |
| AGCTCCTC | -0.172 |
| AAACGAGT | 0.128 |
| AACGATGC | -0.214 |
| AGTTTCAA | 0.307 |
| CTCAATGC | -0.0165 |
| ATGTTGAA | 0.184 |
| TAGATATA | 0.241 |
| ACATTCAG | -0.0388 |
| AGCCAGTA | -0.0929 |

| Sequence | PBM E-score |
| --- | --- |
| AAATAAAA | 0.291 |
| ATGATTAC | -0.124 |
| GAGGAATC | -0.169 |
| AATAACCA | 0.112 |
| AATACAAC | 0.157 |
| CTTACCAC | -0.061 |
| AGTCGGCC | -0.0268 |
| GGGTTTAA | 0.215 |
| ATATAAAC | 0.161 |
| CGCACGGC | -0.00864 |
| AGACAGCG | -0.128 |
| GTCGGTAA | 0.0284 |
| GTTGCGAA | 0.093 |
| TCGGGCAA | -0.136 |
| CTACAGGA | -0.14 |
| AAATGATC | -0.0582 |
| CGGGCTCC | -0.132 |
| CAGGACCG | -0.0708 |
| GGCCTTAC | -0.164 |
| CGGGCGGA | -0.012 |
| AAAGATAA | 0.179 |
| AGGAAACT | -0.0643 |
| ACCCTATA | -0.122 |
| ATTCCATC | -0.0115 |
| CTTATCAC | 0.0799 |

| Sequence | PBM E-score |
| --- | --- |
| GGATGCGA | -0.201 |
| CGAAGGGC | -0.198 |
| CCCAATTA | 0.156 |
| CCACATGA | 0.0512 |
| GAAGTGAC | -0.151 |
| CGGGACTA | -0.0932 |
| AAAATATG | 0.241 |
| GAAACGAA | 0.367 |
| CTCACGTC | -0.034 |
| ACAGGATC | -0.014 |
| ACGTTTAG | -0.156 |
| GCCAATTA | 0.05 |
| CGTGTGTC | 0.019 |
| ATGCTTCG | -0.132 |
| ATGCAAAG | -0.115 |
| GCGTTAGA | -0.078 |
| AATTAACG | 0.0868 |
| ATTACCTC | 0.0901 |
| AACGCGAC | 0.0421 |
| ATAGTCAG | -0.144 |
| CAAACGCG | 0.292 |
| GGGCTTCA | -0.192 |
| AGCCGCAA | 0.00182 |
| CCGCTTTC | 0.0921 |
| GCACCAGA | -0.115 |

| Sequence | PBM E-score |
| --- | --- |
| TCACGAGA | -0.0295 |
| CACTCCTG | -0.125 |
| ACTGAAGC | 0.0216 |
| ACAATAAT | 0.0597 |
| CGACCTCG | -0.111 |
| GAAAGTCA | 0.0954 |
| AAAGCCCA | 0.00361 |
| AAGAATTA | 0.129 |
| ATGATAGC | -0.0245 |
| TATTTAGA | 0.121 |
| GTCTAGAA | -0.0207 |
| CTGAAGGC | -0.235 |
| CATCCCCG | 0.247 |
| CAAAATTC | 0.195 |
| ACCCGGAA | 0.101 |
| TGATGCAA | 0.137 |
| GACAAACA | 0.0473 |
| ATCTGGTC | 0.101 |
| ACGTATAT | 0.134 |
| CCCGAAAC | 0.303 |
| TGCCGACA | -0.0784 |
| CCATTGTA | 0.1 |
| TACAAGCA | 0.00789 |
| AATGCACT | 0.00621 |
| ATGCGAAT | 0.124 |

| Sequence | PBM E-score |
| --- | --- |
| AATAATGA | 0.0925 |
| GAAAATGA | 0.204 |
| CGCGAGGC | 0.155 |
| AATAGATC | 0.0946 |
| AACCTTAT | 0.138 |
| ACTCCGGA | 0.0916 |
| CCAGTCAA | -0.0304 |
| AACGGATA | 0.189 |
| ACGGGCAC | -0.161 |
| TCTAAAGA | 0.0725 |
| CCTTAGCC | 0.0679 |
| AAGTCATC | -0.115 |
| AGAAGGCC | -0.0299 |
| AAGAACGG | -0.181 |
| AAAAGTCC | 0.0278 |
| AGTCCACT | -0.113 |
| AAGAAGGT | -0.053 |
| CTACCGCC | -0.167 |
| CTGCCAAA | 0.082 |
| CGATTCTA | -0.042 |
| AGATAGGG | -0.218 |
| CGATAAGC | -0.0182 |
| TGGAGGAA | -0.15 |
| GAATGCAA | 0.0344 |
| ACCGGTAC | -0.201 |

| Sequence | PBM E-score |
| --- | --- |
| AGACCAAG | -0.102 |
| CGATCTAC | -0.0526 |
| GTTGCTAA | 0.174 |
| CTGTGAAG | 0.00467 |
| CCCTGTGA | -0.124 |
| CCTGTTAC | 0.151 |
| CGAACAGC | -0.19 |
| AATCAAAC | 0.216 |
| CCCCCCGG | -0.276 |
| GGTTCATA | -0.0487 |
| ATTTCCCA | 0.079 |
| ATAACACG | 0.0471 |
| AGGCATCC | -0.26 |
| GGAAGTTA | 0.0953 |
| GGCGCGCC | 0.182 |
| ACTACAAT | 0.25 |
| AGAGATCC | 0.00365 |
| CTAGCCGC | -0.156 |
| CCACTTAC | 0.133 |
| AGATCACA | -0.134 |
| AAGGCTAT | -0.0241 |
| AGGCAGAA | -0.0201 |
| CATGTGGC | -0.112 |
| CCCGAAAG | 0.00951 |
| ATTGCAAG | 0.0803 |

| Sequence | PBM E-score |
| --- | --- |
| CGGAATTA | 0.0923 |
| CGTCCATA | -0.05 |
| GCGGTATA | 0.0655 |
| GGCCACCA | 0.0635 |
| ACACGAGT | 0.0473 |
| AGAGCAAG | -0.103 |
| ACGATCCC | 0.159 |
| CCAAGCGG | -0.244 |
| ACAATCGT | -0.0611 |
| GGTACTAA | 0.123 |
| GTGGCTAA | 0.0525 |
| AAAGGGGG | -0.237 |
| TTGACAAA | -0.0401 |
| ACCTGATA | 0.051 |
| CCCGTTCA | 0.0328 |
| CCAACAGG | 0.106 |
| CTATATAC | 0.162 |
| CCATTATC | -0.019 |
| CCAGTCCG | -0.198 |
